Reference: publication PMC5986797, “Laminin heparin-binding peptides bind to several growth factors and enhance diabetic wound healing” (Nature Communications, 2018)
Results are given in words; binding and its absence hold for the method and conditions named. Some binding calls cover weakened binding; strength is not graded here.

By UniProt entry, the sequences of proteins in these tests, tags left out. Where a name states a change or a piece, a line headed by the entry shows the natural chain unless it says otherwise. Residues count along the entry.
laminin peptide LAMA4_(1408–1434) (Q16363, residues 1408-1434): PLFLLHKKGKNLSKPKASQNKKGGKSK
laminin peptide LAMA4_(1521–1543) (Q16363, residues 1521-1543): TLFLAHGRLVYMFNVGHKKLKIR
UniProt P55268: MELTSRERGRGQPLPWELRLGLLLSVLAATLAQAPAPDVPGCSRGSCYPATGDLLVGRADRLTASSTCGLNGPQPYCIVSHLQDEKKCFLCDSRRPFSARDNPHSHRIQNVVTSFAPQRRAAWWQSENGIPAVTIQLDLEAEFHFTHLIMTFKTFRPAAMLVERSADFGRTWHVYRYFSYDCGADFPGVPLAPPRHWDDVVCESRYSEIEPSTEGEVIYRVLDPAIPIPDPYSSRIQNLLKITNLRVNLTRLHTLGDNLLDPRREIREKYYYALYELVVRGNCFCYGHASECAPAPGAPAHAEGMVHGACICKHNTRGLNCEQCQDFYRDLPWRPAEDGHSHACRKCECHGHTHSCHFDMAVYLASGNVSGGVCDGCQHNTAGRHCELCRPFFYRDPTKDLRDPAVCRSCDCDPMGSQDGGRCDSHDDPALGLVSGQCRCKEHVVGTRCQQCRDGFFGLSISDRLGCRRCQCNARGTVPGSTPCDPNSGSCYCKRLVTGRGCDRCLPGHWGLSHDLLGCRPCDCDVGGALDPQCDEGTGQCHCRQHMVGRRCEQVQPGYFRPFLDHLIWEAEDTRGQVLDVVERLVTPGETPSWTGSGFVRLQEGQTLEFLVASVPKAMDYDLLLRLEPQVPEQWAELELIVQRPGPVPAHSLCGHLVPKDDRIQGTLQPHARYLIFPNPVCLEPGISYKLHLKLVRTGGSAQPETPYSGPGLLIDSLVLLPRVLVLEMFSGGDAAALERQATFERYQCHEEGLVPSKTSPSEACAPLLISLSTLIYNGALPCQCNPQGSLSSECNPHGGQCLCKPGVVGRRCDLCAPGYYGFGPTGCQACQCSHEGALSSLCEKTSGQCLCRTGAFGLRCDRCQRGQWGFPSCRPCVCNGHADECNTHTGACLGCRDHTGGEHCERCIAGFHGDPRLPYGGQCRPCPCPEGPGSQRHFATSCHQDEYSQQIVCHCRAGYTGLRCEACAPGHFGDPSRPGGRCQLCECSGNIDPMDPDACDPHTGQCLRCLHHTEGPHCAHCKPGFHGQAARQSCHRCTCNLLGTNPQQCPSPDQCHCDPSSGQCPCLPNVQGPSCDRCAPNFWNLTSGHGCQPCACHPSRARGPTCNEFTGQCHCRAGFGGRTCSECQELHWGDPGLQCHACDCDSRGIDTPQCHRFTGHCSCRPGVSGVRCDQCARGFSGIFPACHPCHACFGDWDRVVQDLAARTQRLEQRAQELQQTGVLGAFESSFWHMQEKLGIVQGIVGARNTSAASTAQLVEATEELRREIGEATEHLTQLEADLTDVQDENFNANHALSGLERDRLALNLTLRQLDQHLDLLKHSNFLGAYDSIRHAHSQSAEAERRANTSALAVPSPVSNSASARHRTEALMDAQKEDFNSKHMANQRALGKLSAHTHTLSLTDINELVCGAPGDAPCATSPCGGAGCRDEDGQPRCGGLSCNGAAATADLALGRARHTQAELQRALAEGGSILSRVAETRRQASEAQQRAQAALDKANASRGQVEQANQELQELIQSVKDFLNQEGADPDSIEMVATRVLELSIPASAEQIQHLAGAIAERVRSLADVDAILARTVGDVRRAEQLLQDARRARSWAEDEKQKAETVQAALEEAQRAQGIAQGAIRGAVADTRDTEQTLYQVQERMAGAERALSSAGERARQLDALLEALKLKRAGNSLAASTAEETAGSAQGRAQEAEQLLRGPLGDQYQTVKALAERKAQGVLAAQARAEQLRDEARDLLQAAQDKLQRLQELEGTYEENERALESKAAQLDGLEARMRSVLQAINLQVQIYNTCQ
UniProt P11047: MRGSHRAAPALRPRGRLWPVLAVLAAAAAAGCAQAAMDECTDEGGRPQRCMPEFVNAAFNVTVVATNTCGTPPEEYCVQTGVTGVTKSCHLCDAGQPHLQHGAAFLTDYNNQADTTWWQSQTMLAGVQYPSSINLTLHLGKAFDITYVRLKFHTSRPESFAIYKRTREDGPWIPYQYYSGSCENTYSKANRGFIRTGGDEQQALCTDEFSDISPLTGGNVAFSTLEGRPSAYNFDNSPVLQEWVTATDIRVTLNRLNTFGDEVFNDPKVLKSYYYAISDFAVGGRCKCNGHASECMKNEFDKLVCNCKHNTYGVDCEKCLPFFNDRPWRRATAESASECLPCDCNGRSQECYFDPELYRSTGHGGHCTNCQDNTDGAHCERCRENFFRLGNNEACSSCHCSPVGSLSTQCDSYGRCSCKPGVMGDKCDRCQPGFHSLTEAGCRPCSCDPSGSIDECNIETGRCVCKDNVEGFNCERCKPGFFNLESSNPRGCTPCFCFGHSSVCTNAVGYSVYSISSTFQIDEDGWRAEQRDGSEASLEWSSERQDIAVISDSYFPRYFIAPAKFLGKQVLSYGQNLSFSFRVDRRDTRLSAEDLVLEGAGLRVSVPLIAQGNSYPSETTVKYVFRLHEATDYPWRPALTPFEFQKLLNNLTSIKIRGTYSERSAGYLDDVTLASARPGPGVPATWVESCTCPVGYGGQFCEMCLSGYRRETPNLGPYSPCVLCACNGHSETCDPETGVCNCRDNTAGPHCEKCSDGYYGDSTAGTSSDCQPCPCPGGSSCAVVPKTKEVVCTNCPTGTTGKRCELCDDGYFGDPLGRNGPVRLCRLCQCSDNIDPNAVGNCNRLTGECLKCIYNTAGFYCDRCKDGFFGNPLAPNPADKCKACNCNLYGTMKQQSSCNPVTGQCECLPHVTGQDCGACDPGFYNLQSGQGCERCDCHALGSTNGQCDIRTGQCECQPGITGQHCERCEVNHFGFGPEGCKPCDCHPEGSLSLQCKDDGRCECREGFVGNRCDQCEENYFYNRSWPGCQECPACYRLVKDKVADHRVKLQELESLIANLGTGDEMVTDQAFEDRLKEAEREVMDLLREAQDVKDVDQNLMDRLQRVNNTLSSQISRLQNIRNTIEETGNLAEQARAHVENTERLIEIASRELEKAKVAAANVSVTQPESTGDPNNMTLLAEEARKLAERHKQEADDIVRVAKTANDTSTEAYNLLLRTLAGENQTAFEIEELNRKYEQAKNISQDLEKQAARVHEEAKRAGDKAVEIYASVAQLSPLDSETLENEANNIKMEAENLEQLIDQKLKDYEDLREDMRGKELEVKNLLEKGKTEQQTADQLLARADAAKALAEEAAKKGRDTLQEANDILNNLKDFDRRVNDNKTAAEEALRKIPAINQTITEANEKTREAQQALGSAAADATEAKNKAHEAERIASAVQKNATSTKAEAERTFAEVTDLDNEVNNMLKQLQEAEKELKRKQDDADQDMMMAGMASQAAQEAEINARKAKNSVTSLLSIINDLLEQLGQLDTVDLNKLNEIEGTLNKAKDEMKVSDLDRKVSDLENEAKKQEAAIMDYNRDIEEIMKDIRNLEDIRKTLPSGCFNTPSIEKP
UniProt P24043: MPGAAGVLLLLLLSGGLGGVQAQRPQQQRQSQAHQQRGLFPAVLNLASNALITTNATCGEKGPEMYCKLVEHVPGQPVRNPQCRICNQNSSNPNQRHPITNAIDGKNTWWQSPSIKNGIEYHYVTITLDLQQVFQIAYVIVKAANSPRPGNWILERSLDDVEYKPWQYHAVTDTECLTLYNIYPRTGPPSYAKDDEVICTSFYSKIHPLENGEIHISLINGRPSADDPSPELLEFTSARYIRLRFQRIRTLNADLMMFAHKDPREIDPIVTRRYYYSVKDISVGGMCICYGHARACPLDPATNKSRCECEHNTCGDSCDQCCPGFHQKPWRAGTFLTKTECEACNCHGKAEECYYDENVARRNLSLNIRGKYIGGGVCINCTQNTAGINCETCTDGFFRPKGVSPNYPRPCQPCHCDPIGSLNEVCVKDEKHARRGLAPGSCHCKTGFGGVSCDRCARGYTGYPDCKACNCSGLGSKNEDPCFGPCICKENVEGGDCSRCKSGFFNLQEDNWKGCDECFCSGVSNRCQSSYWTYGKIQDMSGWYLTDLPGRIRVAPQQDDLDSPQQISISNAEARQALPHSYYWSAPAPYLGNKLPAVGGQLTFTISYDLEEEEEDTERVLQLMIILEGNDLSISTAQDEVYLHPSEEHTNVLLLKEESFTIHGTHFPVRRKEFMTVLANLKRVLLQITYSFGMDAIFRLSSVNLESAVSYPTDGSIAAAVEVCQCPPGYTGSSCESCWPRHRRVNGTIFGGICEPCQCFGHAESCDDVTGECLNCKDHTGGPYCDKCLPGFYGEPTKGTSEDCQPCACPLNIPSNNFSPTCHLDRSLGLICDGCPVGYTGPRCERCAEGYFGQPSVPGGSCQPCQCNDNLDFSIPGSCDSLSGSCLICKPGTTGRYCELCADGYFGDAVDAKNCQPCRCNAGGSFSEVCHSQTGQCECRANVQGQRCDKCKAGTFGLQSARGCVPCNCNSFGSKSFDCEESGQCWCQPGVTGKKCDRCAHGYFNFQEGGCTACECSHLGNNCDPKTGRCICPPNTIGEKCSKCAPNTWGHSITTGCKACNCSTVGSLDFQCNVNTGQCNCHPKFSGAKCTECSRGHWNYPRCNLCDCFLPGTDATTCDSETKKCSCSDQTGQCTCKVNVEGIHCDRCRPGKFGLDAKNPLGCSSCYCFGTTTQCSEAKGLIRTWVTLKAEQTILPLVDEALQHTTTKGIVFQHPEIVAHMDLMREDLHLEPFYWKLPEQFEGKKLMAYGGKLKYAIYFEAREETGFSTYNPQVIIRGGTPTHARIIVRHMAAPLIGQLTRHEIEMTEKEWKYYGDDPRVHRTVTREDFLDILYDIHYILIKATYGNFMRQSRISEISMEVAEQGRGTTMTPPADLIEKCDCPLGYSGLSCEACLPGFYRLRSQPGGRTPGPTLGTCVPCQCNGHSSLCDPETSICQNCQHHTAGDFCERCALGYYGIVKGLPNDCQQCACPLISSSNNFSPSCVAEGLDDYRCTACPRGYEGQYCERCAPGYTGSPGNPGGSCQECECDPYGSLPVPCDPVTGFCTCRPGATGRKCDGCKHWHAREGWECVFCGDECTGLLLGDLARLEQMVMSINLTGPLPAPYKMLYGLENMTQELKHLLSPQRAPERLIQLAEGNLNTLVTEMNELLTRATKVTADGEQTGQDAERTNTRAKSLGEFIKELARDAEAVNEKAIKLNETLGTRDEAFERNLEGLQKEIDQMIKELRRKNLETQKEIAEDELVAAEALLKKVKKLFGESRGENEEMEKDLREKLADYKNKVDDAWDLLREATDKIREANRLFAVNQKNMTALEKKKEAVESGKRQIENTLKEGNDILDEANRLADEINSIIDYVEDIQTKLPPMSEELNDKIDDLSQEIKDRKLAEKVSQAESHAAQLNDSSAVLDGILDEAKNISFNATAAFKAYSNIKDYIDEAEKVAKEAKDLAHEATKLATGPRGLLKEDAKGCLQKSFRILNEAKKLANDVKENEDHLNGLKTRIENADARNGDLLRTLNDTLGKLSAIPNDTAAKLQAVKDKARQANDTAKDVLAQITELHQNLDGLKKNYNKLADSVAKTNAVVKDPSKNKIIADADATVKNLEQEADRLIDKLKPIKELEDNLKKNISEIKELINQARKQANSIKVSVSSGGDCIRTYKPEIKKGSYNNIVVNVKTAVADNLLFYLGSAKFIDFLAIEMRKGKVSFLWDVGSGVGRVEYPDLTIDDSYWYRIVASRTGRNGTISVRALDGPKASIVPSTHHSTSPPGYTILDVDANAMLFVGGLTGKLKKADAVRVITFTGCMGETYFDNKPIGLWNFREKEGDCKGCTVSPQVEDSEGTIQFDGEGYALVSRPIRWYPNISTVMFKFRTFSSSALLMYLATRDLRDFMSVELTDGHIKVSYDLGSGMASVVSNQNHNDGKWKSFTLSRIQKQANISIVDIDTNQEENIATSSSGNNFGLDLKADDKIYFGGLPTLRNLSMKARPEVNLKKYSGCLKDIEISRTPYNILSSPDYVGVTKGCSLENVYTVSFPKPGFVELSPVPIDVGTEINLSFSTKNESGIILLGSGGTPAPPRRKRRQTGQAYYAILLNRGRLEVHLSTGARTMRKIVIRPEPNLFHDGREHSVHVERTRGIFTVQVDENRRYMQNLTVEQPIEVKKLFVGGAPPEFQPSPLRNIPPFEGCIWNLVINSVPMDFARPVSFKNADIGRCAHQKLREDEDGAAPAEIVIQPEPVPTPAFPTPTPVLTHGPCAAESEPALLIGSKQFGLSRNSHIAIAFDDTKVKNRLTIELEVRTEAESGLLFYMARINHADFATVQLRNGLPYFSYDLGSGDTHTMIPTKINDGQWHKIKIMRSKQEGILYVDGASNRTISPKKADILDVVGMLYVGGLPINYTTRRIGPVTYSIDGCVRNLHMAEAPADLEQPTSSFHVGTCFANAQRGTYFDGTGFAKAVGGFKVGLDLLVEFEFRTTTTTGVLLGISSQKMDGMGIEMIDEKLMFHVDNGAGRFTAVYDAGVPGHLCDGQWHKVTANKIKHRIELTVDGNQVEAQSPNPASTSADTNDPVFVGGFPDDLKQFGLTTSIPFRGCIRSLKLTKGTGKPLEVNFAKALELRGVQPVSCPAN

T1: laminin peptide LAMA5_(3312–3325) (human) (UniProt O15230)
T1 sequence (peptide): ARKASRRSRQPARH

T2: laminin peptide LAMA3_(3031–3043) (human) (UniProt Q16787)
T2 sequence (peptide): KNSFMALYLSKGR

T3: laminin peptide LAMA5_(3539–3550) (human) (UniProt O15230)
T3 sequence (peptide): TLPDVGLELEVR

T4: laminin peptide LAMA3_(2932–2951) (human) (UniProt Q16787)
T4 sequence (peptide): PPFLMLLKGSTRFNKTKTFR

T5: laminin peptide LAMA5_(3300–3330) (human) (UniProt O15230)
T5 sequence (peptide): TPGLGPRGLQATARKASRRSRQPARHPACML

T6: laminin peptide LAMA3_(3043–3067) (human) (UniProt Q16787)
T6 sequence (peptide): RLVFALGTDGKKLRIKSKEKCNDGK

T7: laminin peptide LAMA5_(3417–3436) (human) (UniProt O15230)
T7 sequence (peptide): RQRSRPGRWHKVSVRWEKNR

T8: recombinant laminin LAMA3_(2928–3150) protein (human) (UniProt Q16787)
T8 sequence: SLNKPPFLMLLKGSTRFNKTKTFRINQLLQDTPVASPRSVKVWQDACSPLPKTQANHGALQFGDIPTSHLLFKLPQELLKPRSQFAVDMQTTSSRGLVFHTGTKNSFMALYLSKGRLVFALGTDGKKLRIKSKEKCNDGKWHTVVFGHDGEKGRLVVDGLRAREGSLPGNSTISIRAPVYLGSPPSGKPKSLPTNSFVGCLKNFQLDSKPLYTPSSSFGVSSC

T9: laminin alpha 5 LG domain recombinant protein LAMA5_(3026–3482) (human) (UniProt O15230)
T9 sequence: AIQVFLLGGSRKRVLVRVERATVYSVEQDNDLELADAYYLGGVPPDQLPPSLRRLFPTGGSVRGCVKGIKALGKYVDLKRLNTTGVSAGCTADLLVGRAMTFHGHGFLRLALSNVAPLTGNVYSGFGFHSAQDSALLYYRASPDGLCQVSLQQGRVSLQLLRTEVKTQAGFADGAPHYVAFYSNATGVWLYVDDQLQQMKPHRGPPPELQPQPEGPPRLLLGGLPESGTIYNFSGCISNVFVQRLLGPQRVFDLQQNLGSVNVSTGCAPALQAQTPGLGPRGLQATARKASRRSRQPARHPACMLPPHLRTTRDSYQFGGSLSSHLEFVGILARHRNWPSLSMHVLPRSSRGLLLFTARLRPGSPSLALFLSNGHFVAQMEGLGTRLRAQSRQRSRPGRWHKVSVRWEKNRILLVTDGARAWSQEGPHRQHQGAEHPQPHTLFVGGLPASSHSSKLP


Experiments:
[1] = biological target: T1, laminin peptide LAMA5_(3312–3325) (human); test: ELISA; plates coated with laminin peptide (10 µg/mL by the legend, 1 μg/mL by the methods); 1 μg/mL His-tagged syndecan added; detected with anti-histidine tag antibody; BSA-coated wells as control; both purified
[2] = biological target: T2, laminin peptide LAMA3_(3031–3043) (human); test: as above
[3] = biological target: laminin peptide LAMA4_(1521–1543) (human) (UniProt Q16363); test: as above
[4] = biological target: laminin peptide LAMA4_(1408–1434) (human) (UniProt Q16363); test: as above
[5] = biological target: T3, laminin peptide LAMA5_(3539–3550) (human); test: as above
[6] = biological target: T4, laminin peptide LAMA3_(2932–2951) (human); test: as above
[7] = biological target: T1, laminin peptide LAMA5_(3312–3325) (human); test: ELISA; plates coated with laminin peptide (10 µg/mL by the legend, 1 μg/mL by the methods); 1 μg/mL GF added; bound GF detected with an antibody for each GF; BSA-coated wells as control; both purified
[8] = biological target: T2, laminin peptide LAMA3_(3031–3043) (human); test: as above
[9] = biological target: laminin peptide LAMA4_(1521–1543) (human) (UniProt Q16363); test: as above
[10] = biological target: T5, laminin peptide LAMA5_(3300–3330) (human); test: as above
[11] = biological target: T6, laminin peptide LAMA3_(3043–3067) (human); test: as above
[12] = biological target: T7, laminin peptide LAMA5_(3417–3436) (human); test: as above
[13] = biological target: laminin peptide LAMA4_(1408–1434) (human) (UniProt Q16363); test: as above
[14] = biological target: T3, laminin peptide LAMA5_(3539–3550) (human); test: as above
[15] = biological target: T4, laminin peptide LAMA3_(2932–2951) (human); test: as above
[16] = biological target: T8, recombinant laminin LAMA3_(2928–3150) protein (human); test: ELISA; plates coated with 1 μg/mL recombinant laminin LG domain; 1 μg/mL GF added; bound GF detected with an antibody for each GF; BSA-coated wells as control; both purified
[17] = biological target: T9, laminin alpha 5 LG domain recombinant protein LAMA5_(3026–3482) (human); test: as above
[18] = biological target: recombinant human laminin-421 (human) (UniProt Q16363+P55268+P11047); test: ELISA; plates coated with 10 μg/mL laminin isoform; 1 μg/mL GF for 60 min at RT in the absence or presence of 10 μM heparin; bound GF detected with an antibody for each GF; both purified
[19] = biological target: recombinant human laminin-411 (human) (UniProt Q16363+P07942+P11047); test: as above
laminin-221 = laminin-221 (UniProt P24043); test: as above

Row | binding [1] | binding [2] | binding [3] | binding [4] | binding [5] | binding [6] | binding [7] | binding [8] | binding [9] | binding [10] | binding [11] | binding [12] | binding [13] | binding [14] | binding [15] | binding [16] | binding [17] | binding [18] | binding [19] | binding (laminin-221) | Binder
1 | binds weakly | binds weakly | binds | binds | no binding (tested: 1 μg/mL) | binds weakly |  |  |  |  |  |  |  |  |  |  |  |  |  |  | recombinant human syndecan-1 (receptor, UniProt P18827 23-254) QIVATNLPPEDQDGSGDDSDNFSGSGAGALQDITLSQQTPSTWKDTQLLTAIPTSPEPTGLEATAASTSTLPAGEGPKEGEAVVLPEVEPGLTAREQEATPRPRETTQLPTTHLASTTTATTAQEPATSHPHRDMQPGHHETSTPAGPSQADLHTPHTEDGGPSATERAAEDGASSQLPAAEGSGEQDFTFETSGENTAVVAVEPDRRNQSPVDQGATGASQGLLDRKEVLG
2 |  |  |  |  |  |  | no binding (tested: 1 μg/mL) | no binding (tested: 1 μg/mL) | no binding (tested: 1 μg/mL) | no binding (tested: 1 μg/mL) | no binding (tested: 1 μg/mL) | no binding (tested: 1 μg/mL) | no binding (tested: 1 μg/mL) | no binding (tested: 1 μg/mL) | no binding (tested: 1 μg/mL) | no binding (tested: 1 μg/mL) | no binding (tested: 1 μg/mL) |  |  |  | PlGF-1 (ligand, UniProt P49763-2 19-149) LPAVPPQQWALSAGNGSSEVEVVPFQEVWGRSYCRALERLVDVVSEYPSEVEHMFSPSCVSLLRCTGCCGDENLHCVPVETANVTMQLLKIRSGDRPSYVELTFSQHVRCECRPLREKMKPERCGDAVPRR
3 |  |  |  |  |  |  | no binding (tested: 1 μg/mL) |  | binds |  |  |  | binds |  |  |  |  | binds | binds | binds | placental growth factor (PlGF)-2 (ligand, UniProt P49763-3 19-170) LPAVPPQQWALSAGNGSSEVEVVPFQEVWGRSYCRALERLVDVVSEYPSEVEHMFSPSCVSLLRCTGCCGDENLHCVPVETANVTMQLLKIRSGDRPSYVELTFSQHVRCECRPLREKMKPERRRPKGRGKRRREKQRPTDCHLCGDAVPRR
4 | binds weakly | binds weakly | binds | binds | no binding (tested: 1 μg/mL) | binds weakly |  |  |  |  |  |  |  |  |  |  |  |  |  |  | recombinant human syndecan-4 (receptor, UniProt P31431 19-145) ESIRETEVIDPQDLLEGRYFSGALPDDEDVVGPGQESDDFELSGSGDLDDLEDSMIGPEVVHPLVPLDNHIPERAGSGSQVPTEPKKLEENEVIPKRISPVEESEDVSNKVSMSSTVQGSNIFERTE
